This is one part of the list.
Biological target: T1, MBP-FoxP1dN (Mus musculus, UniProt P58462 326-579)
T1 sequence: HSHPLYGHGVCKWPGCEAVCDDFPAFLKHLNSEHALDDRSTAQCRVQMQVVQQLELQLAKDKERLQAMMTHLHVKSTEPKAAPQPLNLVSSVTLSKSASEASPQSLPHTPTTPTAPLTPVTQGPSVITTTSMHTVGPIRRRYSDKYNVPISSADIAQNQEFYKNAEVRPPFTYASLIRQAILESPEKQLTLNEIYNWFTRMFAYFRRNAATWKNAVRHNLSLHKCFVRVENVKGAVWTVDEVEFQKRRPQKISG
Assay: PD-seq (MBP pull-down with sequencing); 20 mM Tris-HCl pH 7.5, 100 mM NaCl, 1.5 mM MgCl2, 0.4 uM protein, 0.1 uM dsDNA library, 30 min, room temperature, amylose pull-down; high values mean tight binding
Details: protein: recombinant; tags: His6-MBP; chain copies: 2; dsDNA, one strand shown
Summary of the method: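 A fragment of mouse FoxP3 or FoxP1 without its N-terminus, carrying a His6-MBP tag and produced in E. coli, was combined at 0.4 µM with a 0.1 µM degenerate double-stranded DNA library filled in with Klenow. The mixture sat for 30 min at room temperature in Tris pH 7.5 buffer containing NaCl and MgCl2. Protein–DNA complexes were captured on amylose resin, washed three times, and the DNA was freed with proteinase K, barcoded by PCR and sequenced on Illumina. Binding is expressed as reads-per-million enrichment of pull-down over input, with replicates pooled.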

| Sequence | binding signal |
| --- | --- |
| GATGATTGTTCTCCCAGCTGATGAATTATCTGGTTCGAGTAAACAAATTTTCCTAATCTTTCTGTTCAAGCGCCATCTAC | 0.96 RPM ratio (pull-down/input) |
| GATGATTGTTCTCCCAGCTGATGAATTCACAGCATCGAGTAAACAAATTTTCCTAATCTTTCTGTTCAAGCGCCATCTAC | 0.993 RPM ratio (pull-down/input) |
| GATGATTGTTCTCCCAGCTGATGAATTAAGCACTTCGAGTAAACAAATTTTCCTAATCTTTCTGTTCAAGCGCCATCTAC | 0.902 RPM ratio (pull-down/input) |
| GATGATTGTTCTCCCAGCTGATGAATTTTTTCGATCGAGTAAACAAATTTTCCTAATCTTTCTGTTCAAGCGCCATCTAC | 1.01 RPM ratio (pull-down/input) |
| GATGATTGTTCTCCCAGCTGATGAATTGAGTACTTCGAGTAAACAAATTTTCCTAATCTTTCTGTTCAAGCGCCATCTAC | 0.964 RPM ratio (pull-down/input) |
| GATGATTGTTCTCCCAGCTGATGAATTGTACCTGTCGAGTAAACAAATTTTCCTAATCTTTCTGTTCAAGCGCCATCTAC | 0.958 RPM ratio (pull-down/input) |
| GATGATTGTTCTCCCAGCTGATGAATTAACGAGTTCGAGTAAACAAATTTTCCTAATCTTTCTGTTCAAGCGCCATCTAC | 0.92 RPM ratio (pull-down/input) |
| GATGATTGTTCTCCCAGCTGATGAATTGGAAGTCTCGAGTAAACAAATTTTCCTAATCTTTCTGTTCAAGCGCCATCTAC | 0.83 RPM ratio (pull-down/input) |
| GATGATTGTTCTCCCAGCTGATGAATTTTGACGATCGAGTAAACAAATTTTCCTAATCTTTCTGTTCAAGCGCCATCTAC | 0.961 RPM ratio (pull-down/input) |
| GATGATTGTTCTCCCAGCTGATGAATTCGTTCTGTCGAGTAAACAAATTTTCCTAATCTTTCTGTTCAAGCGCCATCTAC | 0.884 RPM ratio (pull-down/input) |
| GATGATTGTTCTCCCAGCTGATGAATTTGTCATTTCGAGTAAACAAATTTTCCTAATCTTTCTGTTCAAGCGCCATCTAC | 1.14 RPM ratio (pull-down/input) |
| GATGATTGTTCTCCCAGCTGATGAATTCACATAGTCGAGTAAACAAATTTTCCTAATCTTTCTGTTCAAGCGCCATCTAC | 0.923 RPM ratio (pull-down/input) |
| GATGATTGTTCTCCCAGCTGATGAATTTCTAGTTTCGAGTAAACAAATTTTCCTAATCTTTCTGTTCAAGCGCCATCTAC | 0.858 RPM ratio (pull-down/input) |
| GATGATTGTTCTCCCAGCTGATGAATTATATACTTCGAGTAAACAAATTTTCCTAATCTTTCTGTTCAAGCGCCATCTAC | 1.04 RPM ratio (pull-down/input) |
| GATGATTGTTCTCCCAGCTGATGAATTTGGAGAATCGAGTAAACAAATTTTCCTAATCTTTCTGTTCAAGCGCCATCTAC | 0.952 RPM ratio (pull-down/input) |
| GATGATTGTTCTCCCAGCTGATGAATTGGGCGATTCGAGTAAACAAATTTTCCTAATCTTTCTGTTCAAGCGCCATCTAC | 0.946 RPM ratio (pull-down/input) |

| Sequence | binding signal |
| --- | --- |
| GATGATTGTTCTCCCAGCTGATGAATTCCATGCCTCGAGTAAACAAATTTTCCTAATCTTTCTGTTCAAGCGCCATCTAC | 0.84 RPM ratio (pull-down/input) |
| GATGATTGTTCTCCCAGCTGATGAATTGTTGATATCGAGTAAACAAATTTTCCTAATCTTTCTGTTCAAGCGCCATCTAC | 2.16 RPM ratio (pull-down/input) |
| GATGATTGTTCTCCCAGCTGATGAATTCCAGATTTCGAGTAAACAAATTTTCCTAATCTTTCTGTTCAAGCGCCATCTAC | 0.838 RPM ratio (pull-down/input) |
| GATGATTGTTCTCCCAGCTGATGAATTATCAACTTCGAGTAAACAAATTTTCCTAATCTTTCTGTTCAAGCGCCATCTAC | 1.02 RPM ratio (pull-down/input) |
| GATGATTGTTCTCCCAGCTGATGAATTTAAATGGTCGAGTAAACAAATTTTCCTAATCTTTCTGTTCAAGCGCCATCTAC | 0.899 RPM ratio (pull-down/input) |
| GATGATTGTTCTCCCAGCTGATGAATTGCCCATATCGAGTAAACAAATTTTCCTAATCTTTCTGTTCAAGCGCCATCTAC | 1.03 RPM ratio (pull-down/input) |
| GATGATTGTTCTCCCAGCTGATGAATTGACTCTTTCGAGTAAACAAATTTTCCTAATCTTTCTGTTCAAGCGCCATCTAC | 1.16 RPM ratio (pull-down/input) |
| GATGATTGTTCTCCCAGCTGATGAATTCGGCACATCGAGTAAACAAATTTTCCTAATCTTTCTGTTCAAGCGCCATCTAC | 0.962 RPM ratio (pull-down/input) |
| GATGATTGTTCTCCCAGCTGATGAATTAAGTACATCGAGTAAACAAATTTTCCTAATCTTTCTGTTCAAGCGCCATCTAC | 1.15 RPM ratio (pull-down/input) |
| GATGATTGTTCTCCCAGCTGATGAATTCACACCATCGAGTAAACAAATTTTCCTAATCTTTCTGTTCAAGCGCCATCTAC | 1.03 RPM ratio (pull-down/input) |
| GATGATTGTTCTCCCAGCTGATGAATTACCTAGATCGAGTAAACAAATTTTCCTAATCTTTCTGTTCAAGCGCCATCTAC | 0.958 RPM ratio (pull-down/input) |
| GATGATTGTTCTCCCAGCTGATGAATTGTTGTACTCGAGTAAACAAATTTTCCTAATCTTTCTGTTCAAGCGCCATCTAC | 1.62 RPM ratio (pull-down/input) |
| GATGATTGTTCTCCCAGCTGATGAATTACTCTGGTCGAGTAAACAAATTTTCCTAATCTTTCTGTTCAAGCGCCATCTAC | 0.966 RPM ratio (pull-down/input) |
| GATGATTGTTCTCCCAGCTGATGAATTAGTATGCTCGAGTAAACAAATTTTCCTAATCTTTCTGTTCAAGCGCCATCTAC | 1.06 RPM ratio (pull-down/input) |
| GATGATTGTTCTCCCAGCTGATGAATTCTATTGCTCGAGTAAACAAATTTTCCTAATCTTTCTGTTCAAGCGCCATCTAC | 1.06 RPM ratio (pull-down/input) |
| GATGATTGTTCTCCCAGCTGATGAATTGAAGATATCGAGTAAACAAATTTTCCTAATCTTTCTGTTCAAGCGCCATCTAC | 0.965 RPM ratio (pull-down/input) |
